Source: ChEMBL document CHEMBL4888484, “Replenishing the malaria drug discovery pipeline: Screening and hit evaluation of the MMV Hit Generation Library 1 (HGL1) against asexual blood stage Plasmodium falciparum ,using a nano luciferase reporter read-out” (2022)
The campaign covered roughly 150,000 compounds. About 540 (0.36%) showed an effect of 50% or more. This is one part of the list.

tested on: Plasmodium falciparum; test: Primary screen in NF54 nanoGlo assay, in single point, at 2uM, 72h; a lower Z score goes with more inhibition; type: functional, Erythrocyte; settings: timepoint 72 hour

| SMILES | % Inhibition | Z score |
| --- | --- | --- |
| CCN(C)c1ccccc1NC(=O)NC1CCCC1O (stereo not given) | 7% | -1.24 |
| CN1C(=O)C[C@H](C(=O)NC(C)(C)c2nnc(N)s2)C1(C)C | 12% | -1.59 |
| COc1ccc(S(=O)(=O)N2CC[C@@H]3[C@@H](COCCN3Cc3ccccc3)C2)cc1 | 36% | -4.05 |
| Cc1c(-c2ccc(F)cc2)[nH]c2ccc(CNC(=O)c3cccnc3)cc12 | -8% | 1.35 |
| CC(C)C(=O)Nc1ccc2c(c1)C(N1CCN(C(C)C)CC1)=Nc1ccccc1O2 | -4% | 0.71 |
| O=C(c1ccc2c(c1)CCC2)N1CCOC2(CCS(=O)(=O)CC2)C1 | -1% | 0.21 |
| CCn1ccc2ccn(Cc3cccc(OC)c3)c(=O)c21 | -24% | 2.1 |
| COc1nc(N2CCCCCC2)nc(N2CCC(N(C)C[C@H](C)O)CC2)n1 | -1% | 0.2 |
| CN=C(NCCc1cccs1)NC1CCCC1 | -4% | 0.79 |
| CC(C)Oc1cccc(CN2C[C@H](C)NC(=O)c3ccccc32)c1 | 2% | -0.27 |
| Cc1nnc(NC(=O)[C@H](C(C)C)N(C)C)s1 | -3% | 0.48 |
| CC(C)c1nc([C@H](C)NC(=O)c2ccccn2)cs1 | -5% | 0.48 |
| Cc1nc(C2CC2)ncc1C(=O)N1C[C@@H]2CC[C@H]1CN(Cc1cscn1)C2 | -4% | 0.71 |
| Cc1cccc(C)c1NCC(=O)Nc1ncc(Cc2ccccc2)s1 | 0% | -0.06 |
| Cc1nn(C)c2nc(N3CCCC[C@@H]3CCN3CCN(C)CC3)sc12 | -5% | 0.94 |
| COCCN1CCC[C@H](NC(=O)c2cc(F)cc3ccoc23)C1 | 1% | -0.09 |
| Cc1nnc(Cn2ncnc2-c2ccccc2Cl)o1 | 38% | -5.51 |
| CC(C)(C)C[C@H]1CCN(C(=O)CCc2ccc(C(N)=O)cc2)C1(C)C | -11% | 2.22 |
| COc1ccc([C@H]2CC(O)=Nc3c2ncn3-c2cc(F)ccc2F)cc1O | -1% | 0.08 |
| Cc1nccc(Oc2ccc(-n3ncc4ccccc43)cc2)n1 | -20% | 2.37 |
| Cc1ccccc1NS(=O)(=O)c1cc(-c2ccnn2C)cs1 | -5% | 0.62 |
| CCCCn1nc(CC(N)=O)nc1[C@@H]1[C@H]2[C@@H]3CC[C@@H](C3)[C@@H]12 | 13% | -1.65 |

| SMILES | % Inhibition | Z score |
| --- | --- | --- |
| CCCC(O)(CCC)CNC(=O)C(=O)Nc1ccc(Br)cn1 | -5% | 0.94 |
| Cc1noc(C2CCN(CCC(C)N3CCC(c4nc(C)no4)C3)C2)n1 (stereo not given) | 0% | -0.01 |
| CC(C)OCC1CCN(CCS(C)(=O)=O)CC1 | -10% | 1.88 |
| CCOc1cc(N2CCC(NC(=O)c3ccoc3C)CC2)ncn1 | 4% | -0.68 |
| CC1=C(C)CC(C(=O)N2CCN(C3CCCCC3)CC2)C(C(=O)O)C1 (stereo not given) | 4% | -0.88 |
| Cc1cccc(NS(=O)(=O)c2ccc3c(c2)OC[C@@H](C(=O)N2CCOCC2)O3)c1C | -22% | 2.37 |
| O=C(NCCN1C(=O)COC1=O)Nc1nc(-c2ccccn2)cs1 | 10% | -1.34 |
| CCCc1nc(CN2CCCC[C@@H]2Cn2cncn2)no1 | 3% | -0.46 |
| CCn1ccnc1C1CCCCN1C(=O)C1CCCN(C(N)=O)C1 (stereo not given) | 2% | -0.36 |
| CO[C@@H]1CCC[C@@H]2CN(C(=O)C3(c4ccccc4)CCCC3)C[C@@H]21 | -4% | 0.35 |
| CCC[C@@H](CC(=O)O)NC(=O)c1ccn(C(F)F)n1 | -15% | 1.95 |
| Cc1ccc(C)c(CNC(=O)[C@@H]2CCCCc3n[nH]c(=O)n32)c1 | -15% | 1.47 |
| CCc1ncncc1C(=O)N1CCc2ccc(Br)cc21 | 8% | -1.06 |
| O=C1COc2cccnc2N1Cc1nccs1 | -7% | 1.18 |
| C[C@H]1CCN(C(=O)NCc2nccc(C(F)F)n2)[C@@H](C)C1 | -9% | 1.77 |
| COc1cc(-c2cccc(C(=O)N[C@H]3CCS(=O)(=O)C3)c2)nc(OC)n1 | -3% | 0.51 |
| O=C(NCc1ccccc1Cl)c1nn(-c2ccccc2)c(=O)c2ccccc12 | -14% | 2.2 |
| FC(F)(F)Oc1ccc(Nc2nc(N3CCCCC3)nc(N3CCN(c4cccc(Cl)c4)CC3)n2)cc1 | -10% | 1.26 |
| O=C1CCC(=O)n2ncc(-c3ccc(Cl)cc3)c2N1 | 2% | -0.2 |
| Cc1nc(C2CCOCC2)n([C@H]2CCN(S(=O)(=O)c3cc(F)cc(F)c3)C2)n1 | -5% | 0.63 |
| COc1cccc(CN2C(=O)N[C@@](C)(C3CCN(C(=O)c4cccnc4OC)CC3)C2=O)c1OC | 8% | -1.05 |
| CN1C[C@@H](O)CNS(=O)(=O)c2ccc(-c3cnn(C)c3)cc2O[C@H]2CN(Cc3nccn3C)C[C@H]21 | -1% | 0.14 |

| SMILES | % Inhibition | Z score |
| --- | --- | --- |
| CCN(CC)c1nc(=O)c2c(ncn2Cc2cccc(OC)c2)c(=O)[nH]1 | -7% | 1.03 |
| CC(=O)Nc1ccn([C@H]2CCN(Cc3ccnc(C#N)c3)C2)n1 | -8% | 1.15 |
| Cc1nc2oc(-c3ccccc3)nc2cc1NC(=O)c1cccc(Br)c1 | -9% | 1.09 |
| Cc1ocnc1Cn1nnc([C@@H](NC(=O)c2ccccc2)C2CC2)n1 | -12% | 1.04 |
| O=C(Nc1ccc(C(F)(F)F)cc1)[C@@H]1CCN(c2ccccc2Br)C1=O | 7% | -1.36 |
| Cc1occc1C(=O)Nc1cccc2ccccc12 | -5% | 0.59 |
| CC1c2ccccc2OC1C(=O)Nc1cnccn1 (stereo not given) | -12% | 1.16 |
| O=S(=O)(c1ccc(Cl)cc1)[C@H]1CCN(S(=O)(=O)c2cc(F)ccc2F)C1 | 10% | -1.8 |
| CCc1nc2c(N3CCC[C@@]4(CCOC4)C3)ncnc2o1 | 15% | -2 |
| O=C1CN(C(=O)[C@@H]2COc3ccccc3O2)CN1CC1CC1 | -13% | 1.99 |
| CCC(CC)(CCO)CNC(=O)c1ccncc1Cl | -6% | 0.63 |
| c1ccc2c(c1)C[C@H](CNCc1cnc(N3CCOCC3)nc1)CO2 | -4% | 0.63 |
| CC(C)(C)c1nc(CNS(=O)(=O)C[C@H]2CCCCC2(F)F)n[nH]1 | 2% | -0.38 |
| Cc1cccc(C)c1Nc1c(-c2ccccn2)nc2ncccn12 | -15% | 2.27 |
| O=C(c1ccncc1)N(c1cccc(F)c1)C1CCOCC1 | 5% | -0.6 |
| Cc1cccc(C)c1C(=O)NC1CCN(C(=O)c2cn[nH]c2)CC1 | -11% | 1.48 |
| CN(Cc1cnc2ccccc2c1)C[C@H]1CCCN1C | -10% | 1.03 |
| COCCN1CCN(C(=O)c2ccc(C#N)s2)CC1=O | -12% | 1.52 |
| CCN=C(NCc1ncnn1C)N1CCN(c2cccc(C)c2)CC1 | 0% | 0.06 |
| Cc1cc(C(=O)N2CCC[C@H](Nc3ccc4c(c3)OCCO4)C2)nn1C | -24% | 2.14 |
| Cn1ccnc1C(NS(=O)(=O)N1CC2CCC1C2)C(C)(C)CO (stereo not given) | -2% | 0.18 |
| Cc1cc(C(=O)NC2CCCCCC2)sc1C | 0% | 0.04 |

| SMILES | % Inhibition | Z score |
| --- | --- | --- |
| Cc1ccsc1C(=O)N[C@H]1CCN(CC(=O)N(C)C)C[C@@H]1O | -5% | 0.78 |
| COCC(=O)N[C@@H]1CN(C(=O)Cc2cccc(C(C)C)c2)C[C@H]1c1nccn1C | -7% | 1.06 |
| O=C(NC[C@@H](CO)CC1CCCC1)C1=COCCO1 | -13% | 2.39 |
| COc1cccc([C@H]2Nc3ccccc3-n3cc4c(=O)n(C)c(=O)n(C)c4c32)c1 | 2% | -0.32 |
| CC(C)C1(CNC(=O)Nc2nn[nH]c2C(N)=O)CC1 | -7% | 0.94 |
| Cc1cnn(CCC(=O)Nc2nnc(CC3CCCCC3)s2)c1 | 0% | -0.02 |
| O=C(Nc1ccc(F)c(F)c1F)c1cc(O)ncn1 | -5% | 0.79 |
| Cc1ccc(OC(=O)c2ccccc2N2C(=O)c3ccccc3C2=O)cc1C | 0% | 0 |
| CS(=O)(=O)NCCCn1ccc2cccnc21 | -14% | 2.18 |
| Cc1noc(C(C)(C)NC(=O)Nc2c[nH]nc2-c2nccs2)n1 | 37% | -5.4 |
| NC(=O)CO[C@@H]1CO[C@H]2[C@@H]1OC[C@@H]2NC(=O)NCc1ccccc1 | 25% | -2.83 |
| CN(C)c1nc(CNC(=O)Cn2cncn2)nc(N2CCOCC2)n1 | -18% | 2.3 |
| Cc1cnc(COC(=O)CN(C)C(=O)OCc2ccccc2)o1 | -2% | 0.36 |
| CC(=O)N[C@@H](CCC(N)=O)C(=O)N(C)c1ccc(C(C)(C)C)cc1 | -10% | 1.65 |
| COC[C@H]1[C@H](NC(=O)c2csc(C(C)C)c2)[C@H]2CCO[C@H]21 | -3% | 0.59 |
| CCn1cnnc1[C@H](C)NC(=O)Nc1cc(NS(C)(=O)=O)ccc1F | -17% | 2.12 |
| COC(=O)c1cccn1C(=O)c1ccc(Cl)cc1 | -6% | 0.77 |
| COc1ccc(CNC(=O)CN2c3ccccc3S(=O)(=O)c3ccccc32)cc1 | -5% | 0.57 |
| CN(CCO)CCN(C)C(=O)Nc1nc2c(s1)CCCC2(C)C | -4% | 0.86 |
